Results taken from PubChem BioAssay AID1159614 (National Center for Advancing Translational Sciences (NCATS), 2016).
Screen size: about 45,000 compounds; about 65 (0.1%) were called active. The call rests on the fitted dose curve; in most records, active means well fitted activation curve with a large enough effect; inconclusive means small, poorly fitted or top-dose-only effect; inactive means no such curve, though single readings can be large or run the other way. This is one part of the list.

biological target: Galactocerebrosidase (Homo sapiens) (UniProt P54803); experiment: A Novel Cell-Based Assay to Identify Small Molecules for B -Galactocerebrosidase; details: 145M-Twi-hGALC-G270D cells (Twitcher mouse brain line with human GALC G270D), HMU-beta-Gal fluorescence, 48 h; activation: at the top concentration; further: nearly all actives have a fitted effect of over 65% in size; on activation: 0% is about no effect
UniProt P54803, sequence (P54803 whole entry, looked up): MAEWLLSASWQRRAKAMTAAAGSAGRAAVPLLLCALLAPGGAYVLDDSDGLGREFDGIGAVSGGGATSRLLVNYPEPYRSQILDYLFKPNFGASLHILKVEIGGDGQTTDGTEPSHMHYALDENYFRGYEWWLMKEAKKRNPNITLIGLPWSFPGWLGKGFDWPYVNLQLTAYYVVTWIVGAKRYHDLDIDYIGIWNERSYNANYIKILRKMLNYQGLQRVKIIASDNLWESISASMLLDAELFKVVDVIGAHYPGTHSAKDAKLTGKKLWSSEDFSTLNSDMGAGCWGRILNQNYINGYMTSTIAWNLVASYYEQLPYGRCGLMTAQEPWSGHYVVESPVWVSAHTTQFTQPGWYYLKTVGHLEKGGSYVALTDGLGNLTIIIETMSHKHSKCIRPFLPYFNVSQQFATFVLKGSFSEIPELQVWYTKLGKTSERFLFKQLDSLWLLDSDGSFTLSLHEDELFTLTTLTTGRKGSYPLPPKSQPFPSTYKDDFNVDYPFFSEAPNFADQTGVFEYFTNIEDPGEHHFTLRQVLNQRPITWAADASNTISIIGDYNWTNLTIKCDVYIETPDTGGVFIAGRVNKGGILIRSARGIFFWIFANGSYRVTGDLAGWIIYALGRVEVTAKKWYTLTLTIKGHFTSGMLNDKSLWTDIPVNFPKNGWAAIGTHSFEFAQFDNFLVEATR
How it was run: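 Fluorogenic HMU-b-Gal hydrolysis (0.1 mM final, pH 5.2 citrate-phosphate with 1 mg/mL sodium taurocholate; carbonate stop buffer) measures mutant GALC activity after compound treatment of live 145M-Twi Twitcher brain cells stably carrying human GALC-G270D, with wild-type GALC line alongside; activation sought.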
Potency means the concentration at half of the fitted maximal effect.

| SMILES | activation | Potency |
| --- | --- | --- |
| CC(C)=CC1C(C(=O)OCc2cccc(Oc3ccccc3)c2)C1(C)C (centres undefined) | inactive: -14.1% | – |
| Cc1cc(OCC(=O)N2CCN(CCc3ccncc3)CC2)ccc1Cl | inactive: -4.47% | – |
| CSc1ccc(/C=C/c2nc3ccccc3c(=O)n2-c2cccc(Cl)c2C)cc1 | inactive: -8.17% | – |
| O=C(O)c1cc(Oc2ccc(C(F)(F)F)cc2Cl)ccc1[N+](=O)[O-] | inactive: -11.2% | – |
| Cc1ncc2n1-c1ccc(Cl)cc1C(c1ccccc1F)=NC2 | inactive: -11.7% | – |
| N#Cc1cc2c(nc1SCC(=O)Nc1ccc(C(F)(F)F)cc1)C1CCN2CC1 | inactive: -23.4% | – |
| COc1ccc(-n2c(/C=C\c3ccccc3F)nc3ccccc3c2=O)c(OC)c1 | inactive: -21% | – |
| CC(C)c1ccc(OCC(=O)N2CCN(CCc3ccncc3)CC2)cc1 | inactive: 5.56% | – |
| CCOC(=O)NC(C)(C)Cc1ccc(Cl)cc1 | inactive: -16.4% | – |
| N[C@H]1CN(c2c(F)cc3c(=O)c(C(=O)O)cn(C4C[C@@H]4F)c3c2Cl)CC12CC2 (some centres undefined) | inactive: -37% | – |
| CNC(=O)NC(O)C(Cl)(Cl)Cl (centres undefined) | inactive: -1.57% | – |
| CCN[C@@H](C)Cc1cccc(C(F)(F)F)c1 | inactive: -6.47% | – |
| CCOC(=O)Cn1cccc1-c1nc(-c2ccc(OC)cc2)c(-c2ccc(OC)cc2)s1 | inactive: -11.4% | – |
| CCc1cccc(NC(=O)CN2C(=O)CN=C(c3ccccc3F)c3cc(Cl)ccc32)c1 | inactive: -10.9% | – |
| COc1ccc(OC)c(C(c2c(O)c3ccccc3oc2=O)c2c(C)n(C)n(-c3ccccc3)c2=O)c1 (centres undefined) | inactive: -18% | – |
| O=C(Nc1ccc(Cl)cc1)Nc1ccc(Cl)c(C(F)(F)F)c1 | inactive: -34.4% | – |
| CCC(=O)OC1(c2ccccc2)CCN(C)CC1 | inactive: 5.39% [at 129 µM] | – |
| Cc1ccc2c(c1)C1CN(C)CCC1N2 (centres undefined) | inactive: -11.9% [at 23.8 µM] | – |
| O=C(O)CCCc1ccc(N(CCCl)CCCl)cc1 | inactive: -14.7% | – |
| CCCCOC(=O)c1ccccc1C(=O)OCc1ccccc1 | inactive: -13.9% [at 114 µM] | – |
| COc1cccc(C(=O)CCN[C@@H](C)[C@H](O)c2ccccc2)c1 | inactive: 4.73% | – |
| C#CCOC(C(=O)OCCN(C)C)(c1ccccc1)c1ccccc1 | inactive: -5.3% | – |
| O=C(O)[C@@H](O)[C@H](O)[C@H](O)[C@@H](O)C(=O)O | inactive: -13.5% | – |

| SMILES | activation | Potency |
| --- | --- | --- |
| COc1ccc(C(=O)N2CCCC2=O)cc1 | inactive: -12.2% | – |
| Cc1cccc(Cn2cccc(C(=O)Nc3cc(C)on3)c2=O)c1 | inactive: -3.46% | – |
| CN1C(=S)CN=C(c2ccccc2)c2cc(Cl)ccc21 | inactive: -17.6% | – |
| COc1ccc(OC)c(CC(C)N)c1 (centres undefined) | inactive: -2.47% [at 129 µM] | – |
| COc1ccc(C(=O)N2CCN(c3nc4c(OC)cccc4s3)CC2)cc1OC | inactive: -51.6% | – |
| CSc1ccc(CN2CCN(C(=O)COc3cccc(C)c3)CC2)cc1 | inactive: -29.1% | – |
| COc1cccc(NC(=O)c2ccc3c(=O)n4nc(Nc5ccccc5OC)sc4nc3c2)c1 | inactive: -31.1% | – |
| Cc1cccc(-n2c(/C=C/c3c[nH]c4ccccc34)nc3ccccc3c2=O)c1 | inactive: -15.6% | – |
| COc1ccc(-c2nc(CN3C(=O)CN=C(c4ccccc4)c4ccccc43)c(C)o2)cc1 | inactive: -2.32% | – |
| O=C1c2ccccc2C(=O)C1C(=O)C(c1ccccc1)c1ccccc1 | inactive: -11.6% | – |
| NC1(c2ccccc2)CCCCC1 | inactive: -5.32% [at 114 µM] | – |
| Nc1ccncc1 | inactive: -19.4% | – |
| C[N+]1(CCF)[C@@H]2CC[C@H]1CC(OC(=O)C(O)(c1ccccc1)c1ccccc1)C2 (some centres undefined) | inactive: -8.09% | – |
| CC(C)=CC1C(C(=O)OCN2C(=O)C3=C(CCCC3)C2=O)C1(C)C (centres undefined) | inactive: 0.393% | – |
| COc1cc(C[C@@H](C)N)c(OC)cc1C | inactive: -4.38% [at 129 µM] | – |
| Cc1ncc(CNC(=O)N(CCCl)N=O)c(N)n1 | inactive: -24.4% | – |
| Cc1cc(NC(=O)c2cccn(Cc3ccccc3)c2=O)no1 | inactive: -14.4% | – |
| CC(C)(C)NCC(O)c1cc(Cl)c(N)c(C(F)(F)F)c1 (centres undefined) | inactive: -7.57% | – |
| CCCC1=Nc2cc(C(=O)NC3CCC(C)CC3)ccc2Sc2ccccc21 (centres undefined) | inactive: -15.3% | – |
| O=C(CN1C(=O)CN=C(c2ccccc2)c2ccccc21)Nc1cccc(C(F)(F)F)c1 | inactive: -7.02% | – |
| Cc1cccc2sc(NC(=O)c3cccn(Cc4ccccc4)c3=O)nc12 | inactive: -11% | – |
| Nc1c(C(=O)Nc2cccc(Br)c2)sc2nc3c(cc12)N1CCC3CC1 | inactive: -7.56% | – |
| COc1ccc2c3c1O[C@H]1[C@@H](O)C=C[C@H]4[C@@H](C2)N(C)CC[C@@]341 | inactive: -6.17% [at 114 µM] | – |

| SMILES | activation | Potency |
| --- | --- | --- |
| CCC1(c2ccccc2)CCC(=O)NC1=O (centres undefined) | inactive: -16.8% | – |
| c1cc2ccc3cccc4ccc(c1)c2c34 | inactive: -15.8% [at 129 µM] | – |
| c1ccc(N2CCNCC2)cc1 | inactive: -15.2% | – |
| Oc1ccc(Cl)cc1Cc1ccccc1 | inactive | – |
| CCCCC(CC)COC(=O)c1ccccc1C(=O)O (centres undefined) | inactive: -17.3% [at 114 µM] | – |
| CCCCC(CC)COC(=O)c1ccccc1C(=O)OCC(CC)CCCC (centres undefined) | inactive: -10.8% [at 114 µM] | – |
| CCOc1ccc(CN(CCc2ccc3c(c2)OCO3)Cc2cccc(C)c2)cc1 | inactive: -27.5% | – |
| Oc1cccc2cccnc12 | inactive | – |
| Cc1cc(OCC(=O)N2CCN(CCc3ccccn3)CC2)cc(C)c1Cl | inactive: -16.9% | – |
| CCN(CC)C(=O)c1ccc(NC(=O)CCn2nc(-c3ccc(C)cc3)c3ccccc3c2=O)cc1 | inactive: -42% | – |
| COc1ccc(C(=O)NCCn2cc(SC(C)c3ccccc3)c3ccccc32)cc1OC (centres undefined) | inactive: -33% | – |
| Cc1cccc(C2CC(=O)Oc3c2c(=O)oc2ccccc32)c1 (centres undefined) | inactive: 2.11% | – |
| COc1ccc(CN2CCN(C(=O)COc3ccccc3)CC2)c(OC)c1 | inactive: 4.23% | – |
| COc1cc(CC(C)N)cc(OC)c1OC (centres undefined) | inactive: 6.35% [at 129 µM] | – |
| CN1C[C@@H](NS(=O)(=O)N(C)C)C[C@@H]2c3cccc4c3c(cn4C)C[C@H]21 | inactive: -16.5% | – |
| Cc1ccc(Cl)c(O)c1 | inactive: -14.5% | – |
| CCN(CC)C(=O)c1ccc(NC(=O)CCn2nc(-c3ccc(Cl)cc3)c3ccccc3c2=O)cc1 | inactive: -16.5% | – |
| COc1ccc2[nH]cc(CCN(C(C)C)C(C)C)c2c1 | inactive: -7.89% [at 129 µM] | – |
| C[C@]12CC[C@H]3[C@@H](CCC4=CC(=O)CC[C@@H]43)[C@@H]1CC[C@@H]2OC(=O)CCc1ccccc1 | inactive: -18.4% | – |
| O=C1NCN(c2ccccc2)C12CCN(CC1COc3ccccc3O1)CC2 (centres undefined) | inactive: -12.7% | – |
| Clc1ccc(CO/N=C(\Cn2ccnc2)c2ccc(Cl)cc2Cl)c(Cl)c1 | inactive: -4.69% | – |
| c1ccc2nc(N3CCNCC3)ccc2c1 | inactive: -2.06% | – |
| COC(=O)c1ccc(NC(=O)c2cccn(Cc3ccccc3C)c2=O)cc1 | inactive: -10.8% | – |

| SMILES | activation | Potency |
| --- | --- | --- |
| CC(C)(N)Cc1ccccc1Cl | inactive: -9.48% | – |
| O=S1(=O)N(Cc2ccccc2)CCCN1Cc1ccc(F)cc1Cl | inactive: -2.56% | – |
| O=c1oc2ccccc2c(O)c1C(CC(O)c1ccc(-c2ccc(Br)cc2)cc1)c1ccccc1 (centres undefined) | inactive: -19.5% | – |
| Cc1ccc(OCC(=O)Nc2ccc(Cl)cc2C(=O)c2ccccc2)cc1 | inactive: 5.52% | – |
| OCCCBr | inactive: -17.4% [at 114 µM] | – |
| CC(CCc1ccccc1)NC(C)C(O)c1ccc(O)cc1 (centres undefined) | inactive: -9.38% | – |
| CCCOC(=O)Cc1ccc(OCC(=O)N(CC)CC)c(OC)c1 | inactive: -19% | – |
| O=C(Nc1ccc(Br)cc1C(=O)c1ccccc1)c1ccccc1 | inactive: -12.2% | – |
| CCCOC(=O)c1cncn1C(C)c1ccccc1 (centres undefined) | inactive: -11.8% | – |
| CCCC[N+]1(C)[C@@H]2CC(OC(=O)[C@H](CO)c3ccccc3)C[C@H]1[C@@H]1O[C@@H]12 (some centres undefined) | inactive: -6.11% | – |
| CCOC(=O)c1ccc(NC(=O)c2sc3nc4c(cc3c2N)N2CCC4CC2)cc1 | – | active: 14.1 µM |
| CN(C)CCc1c[nH]c2ccc(O)cc12 | inactive: -7.95% [at 114 µM] | – |
| O=C(CCCCCCCCC#CI)Oc1ccccc1 | inactive: -12.6% | – |
| COc1ccc(OCC(=O)N2CCN(Cc3cccc(OC)c3OC)CC2)cc1 | inactive: -24% | – |
| NNc1ccccc1 | inactive: -12.4% | – |
| NCCc1cc(O)c(O)cc1O | inactive: -18.7% | – |
| Oc1c(Br)cc(Br)cc1Br | inactive: -11.8% | – |
| Cc1cc(C)cc(OCC(=O)Nc2ccc(Cl)cc2C(=O)c2ccccc2)c1 | inactive: -1.01% | – |
| O=C(C1CCN(S(=O)(=O)c2ccc(Br)s2)CC1)N1CCN(c2cccc(C(F)(F)F)c2)CC1 | inactive: -38.4% | – |
| Clc1ccc(CSC(Cn2ccnc2)c2ccc(Cl)cc2Cl)cc1 (centres undefined) | inactive: 5.31% | – |
| Clc1cccc(N2CCNCC2)c1 | inactive: -17.6% | – |
| CCCN(CCC)C(=O)Cc1c(-c2ccc(Cl)cc2)nc2ccc(Cl)cn12 | inactive: -14.1% | – |
| COc1ccccc1NC(=O)N(Cc1ccc2c(c1)OCO2)C1CCN(Cc2ccccc2)CC1 | inactive: -11.8% | – |

| SMILES | activation | Potency |
| --- | --- | --- |
| COc1ccc(N2CCN(c3ncnc4c3nc3n4CCCCC3)CC2)cc1 | inactive: -0.0405% | – |
| CCN(CC)CCOC(=O)C(C)(c1ccccc1)c1ccccc1 | inactive: -18.9% | – |
| Cc1cccc(-n2c(/C=C/c3c(C)[nH]c4ccccc34)nc3ccccc3c2=O)c1 | inactive: -3.07% | – |
| Nc1c(C(=O)Nc2ccc(Br)cc2F)sc2nc3c(cc12)N1CCC3CC1 | inactive: -1.55% | – |
| O=C(Nc1ccc(Cl)cc1C(=O)c1ccccc1)c1ccccc1Br | inactive: -1.13% | – |
| CN1CCc2cc(Cl)c(O)cc2[C@H]2c3ccccc3CC[C@@H]21 | inactive: -14.7% | – |
| COc1cc(C(c2c(O)c3ccccc3oc2=O)c2c(C)n(C)n(-c3ccccc3)c2=O)ccc1OCC(=O)O (centres undefined) | inactive: -14.7% | – |
| Cc1c(Cl)cccc1NC(=O)CN1C(=O)C(C)N=C(c2ccccc2)c2ccccc21 (centres undefined) | inactive: -17.2% | – |
| CCOC(=O)N1CCN(c2ncc3c(n2)CC(c2ccccc2O)CC3=O)CC1 (centres undefined) | inactive: -36.4% | – |
| Cc1ccc(-c2nc3ccc(C)cn3c2CC(=O)N(C)C)cc1 | inactive: -15.4% | – |
| O=C(Nc1ccc2c(c1)OCO2)c1cccn(Cc2cccc(F)c2)c1=O | inactive: -8.07% | – |
| Cn1cc(/C=C/c2nc3ccccc3c(=O)n2-c2ccccc2)c2ccccc21 | inactive: 4.88% | – |
| Nc1ccc(N=Nc2ccccc2)cc1 | inactive: -7.06% [at 114 µM] | – |
| Nc1nc(N)nc(NC2CC2)n1 | inactive: 1.79% | – |
| COc1cc(C(c2c(O)c3ccccc3oc2=O)c2c(C)n(C)n(-c3ccccc3)c2=O)ccc1O (centres undefined) | inactive: -10.9% | – |
| C[C@H](N)[C@H](O)c1ccc(O)c(O)c1 | inactive: 19.2% | – |
| C[C@]12CCC(=O)C=C1CC[C@@H]1[C@H]3CC[C@](C)(O)[C@@]3(C)CC[C@@H]12 | inactive: 1.2% [at 114 µM] | – |
| CN1CCN(c2oc(-c3ccc(COc4ccccc4)o3)nc2C#N)CC1 | inactive: -16.6% | – |
| CC(C)N(CCC(C(N)=O)(c1ccccc1)c1ccccn1)C(C)C (centres undefined) | inactive: -12.6% | – |
| CCCCOC(=O)CCCCCCCCC(=O)OCCCC | inactive: -35.1% | – |
| O=c1c2ccccc2nc(/C=C/c2ccccc2)n1-c1ccccc1F | inactive: -12.8% | – |
| Cc1nnc(NC(=O)c2cccn(Cc3cccc(Cl)c3)c2=O)s1 | inactive: -3.46% | – |
